This is a noisy data set.

Results on 75 sequences are retold here after the supplement of paper PMC12067230.
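Also: [psi-pin-] Saccharomyces cerevisiae expressing SupN fusions, induced by 100 µM Cu2SO4, selected 7 d at 30 °C without adenine and uracil, scored by deep sequencing of output versus input.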

The nature of the first data set: amyloid nucleation score relative to library mode (yeast Sup35 reporter selection) (log enrichment difference); higher = more amyloid nucleation; sequences are the first 22 residues of the Bri2 peptide extended by up to 12 random residues. As to conditions: random library (experiment): 1;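 active = nucleation score significantly above 0 at FDR 0.05; inactive = not significantly above 0 or absent from output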.
Consider EASNCFAIRHFENKFAVETLICLVLQARISKLTH, for which the amyloid nucleation score entry was “inactive”. EASNCFAIRHFENKFAVETLICLVLSVAHKRVRF: the amyloid nucleation score entry is “inactive”. Sequence EASNCFAIRHFENKFAVETLICLVMDASLKYDGE had an amyloid nucleation score of -0.029. In the case of EASNCFAIRHFENKFAVETLICLVMRLVVMESSV, the amyloid nucleation score entry is “inactive”. Consider EASNCFAIRHFENKFAVETLICLVNCSQHRYL, for which the amyloid nucleation score is 4.46.

Consider EASNCFAIRHFENKFAVETLICLVNGLETWTVAR, for which the amyloid nucleation score came to 5.96. Consider EASNCFAIRHFENKFAVETLICLVNMDRYAEDCG, for which the amyloid nucleation score is 7.16. As to EASNCFAIRHFENKFAVETLICLVNRYLTIVCYC, the amyloid nucleation score entry is “inactive”.

The sequence EASNCFAIRHFENKFAVETLICLVNVNTFYRRWL returned an amyloid nucleation score of 5.06. Consider EASNCFAIRHFENKFAVETLICLVPISLDIRRQE, for which the amyloid nucleation score was found to be 7.21. EASNCFAIRHFENKFAVETLICLVPLTLRYRLSR: the amyloid nucleation score entry was “inactive”. The same measure, in the same setting: as for EASNCFAIRHFENKFAVETLICLVPYRLRAYGLD, the entry is “inactive”; as for EASNCFAIRHFENKFAVETLICLVQ, 1.55.

Take EASNCFAIRHFENKFAVETLICLVRCVDQKVCGC: the amyloid nucleation score result is “inactive”. The same measure, in the same setting: to EASNCFAIRHFENKFAVETLICLVRFHWCIGTEM belongs -0.211; to EASNCFAIRHFENKFAVETLICLVRS, “inactive”; to EASNCFAIRHFENKFAVETLICLVRVIRRRPGVK, “inactive”. EASNCFAIRHFENKFAVETLICLVSAYVMYCLAP registered an amyloid nucleation score of 1.01. Regarding EASNCFAIRHFENKFAVETLICLVSCFRLYVNPR, the amyloid nucleation score entry is “inactive”. For the sequence EASNCFAIRHFENKFAVETLICLVSDRSTAEQCL, the amyloid nucleation score entry was “inactive”. For EASNCFAIRHFENKFAVETLICLVSESSRLETWG, the amyloid nucleation score result is “inactive”. In the case of EASNCFAIRHFENKFAVETLICLVSEVHKNALGL, the amyloid nucleation score stood at 3.09.

EASNCFAIRHFENKFAVETLICLVSSSLYVVTAW showed an amyloid nucleation score of -0.029.

As for EASNCFAIRHFENKFAVETLICLVTEQYIMSSS, the amyloid nucleation score is 3.62. Consider EASNCFAIRHFENKFAVETLICLVV, for which the amyloid nucleation score result is “inactive”.

EASNCFAIRHFENKFAVETLICLVVAP: the amyloid nucleation score result was “inactive”. EASNCFAIRHFENKFAVETLICLVVGSCGKNSFP showed an amyloid nucleation score of 4.47. EASNCFAIRHFENKFAVETLICLVVRYWNFKLTE: the amyloid nucleation score was -0.295.

As to EASNCFAIRHFENKFAVETLICLVVSLLHASVRS, the amyloid nucleation score entry is “inactive”. The same measure, in the same setting: to EASNCFAIRHFENKFAVETLICLVVVQRSETWLR belongs “inactive”; to EASNCFAIRHFENKFAVETLICLVVYRGVEAVRL, 2.69.

Staying with this data set, now noted: random library (experiment): 2.
On to EASNCFAIRHFENKFAVETLICLVLMLVIFVRNG, for which the amyloid nucleation score result is “inactive”. Turning to EASNCFAIRHFENKFAVETLICLVLRVIHLEVE, the amyloid nucleation score result was “inactive”. In the case of EASNCFAIRHFENKFAVETLICLVLTQRILCMTI, the amyloid nucleation score entry is “inactive”.

In turn, EASNCFAIRHFENKFAVETLICLVLTVYDHKGDT displayed an amyloid nucleation score of 6.32. In the case of EASNCFAIRHFENKFAVETLICLVMLLRFDMTSC, the amyloid nucleation score result is “inactive”. The same measure, in the same setting: as for EASNCFAIRHFENKFAVETLICLVMRHMLQEGLL, the entry is “inactive”; as for EASNCFAIRHFENKFAVETLICLVMVL, 2.33; as for EASNCFAIRHFENKFAVETLICLVMVSQEWSMLH, “inactive”. For the sequence EASNCFAIRHFENKFAVETLICLVNSCHRKMGVI, the amyloid nucleation score result is “inactive”. On to EASNCFAIRHFENKFAVETLICLVPAWNTVAVRR, for which the amyloid nucleation score result is “inactive”. On to EASNCFAIRHFENKFAVETLICLVPYYEFCIMAW, for which the amyloid nucleation score was determined as 0.58.

With EASNCFAIRHFENKFAVETLICLVRVRPSESYCK, the amyloid nucleation score is 0.519.

With EASNCFAIRHFENKFAVETLICLVSDVGDNKCMS, the amyloid nucleation score entry was “inactive”. Still for that read-out and setting: to EASNCFAIRHFENKFAVETLICLVSFSL belongs 4.76. Same read-out and setting: as for EASNCFAIRHFENKFAVETLICLVTSSNGYVI, the figure is 0.693; as for EASNCFAIRHFENKFAVETLICLVVCFIMWGVTW, 1.58. For the sequence EASNCFAIRHFENKFAVETLICLVVMNNSMDILL, the amyloid nucleation score entry was “inactive”. For EASNCFAIRHFENKFAVETLICLVVNGYTQWCKS, the amyloid nucleation score was found to be 1.55.

The same data set, now with this note: random library (experiment): 3.
As for EASNCFAIRHFENKFAVETLICLVLRSHVVVLAG, the amyloid nucleation score result was “inactive”. The sequence EASNCFAIRHFENKFAVETLICLVLRVWKCSWTL displayed an amyloid nucleation score of 0.

Turning to EASNCFAIRHFENKFAVETLICLVLSGNI, the amyloid nucleation score was 5.64. In turn, EASNCFAIRHFENKFAVETLICLVM displayed an amyloid nucleation score of 8.49. Take EASNCFAIRHFENKFAVETLICLVMSSEGGLDGH: the amyloid nucleation score stood at 5.8. The same measure, in the same setting: as for EASNCFAIRHFENKFAVETLICLVNFRDLVILSS, the figure is 5.35. On the same count and under the same terms, as for EASNCFAIRHFENKFAVETLICLVNSEGSDTGSP, the figure is 5.38; as for EASNCFAIRHFENKFAVETLICLVNSLPVPVRSW, 1.21. EASNCFAIRHFENKFAVETLICLVQGTNYTRWAR displayed an amyloid nucleation score of 4.38. Still for that read-out and setting: as for EASNCFAIRHFENKFAVETLICLVRWL, the entry is “inactive”. For EASNCFAIRHFENKFAVETLICLVRWWCAVKLRS, the amyloid nucleation score entry was “inactive”. As to EASNCFAIRHFENKFAVETLICLVSH, the amyloid nucleation score entry was “inactive”. EASNCFAIRHFENKFAVETLICLVSLMYFGFYMV: the amyloid nucleation score result is “inactive”. With EASNCFAIRHFENKFAVETLICLVSSISSTELSG, the amyloid nucleation score entry is “inactive”. On the same count and under the same terms, as for EASNCFAIRHFENKFAVETLICLVSVEA, the figure is 0.721; as for EASNCFAIRHFENKFAVETLICLVSVGCNEVSLD, 7.01; as for EASNCFAIRHFENKFAVETLICLVSWNVEEERGL, “inactive”. With EASNCFAIRHFENKFAVETLICLVTFGWMCRSLV, the amyloid nucleation score turned out to be 7.25. In the case of EASNCFAIRHFENKFAVETLICLVTLWAARLCGV, the amyloid nucleation score result is “inactive”.

EASNCFAIRHFENKFAVETLICLVTRCGQRLAWG: the amyloid nucleation score result was “inactive”. In the case of EASNCFAIRHFENKFAVETLICLVVDKTARLAGE, the amyloid nucleation score came out at 5.44.

As to EASNCFAIRHFENKFAVETLICLVVETRICPGRV, the amyloid nucleation score entry is “inactive”. Take EASNCFAIRHFENKFAVETLICLVVNVSHRGQGM: the amyloid nucleation score came out at 2.62. Take EASNCFAIRHFENKFAVETLICLVVS: the amyloid nucleation score result was “inactive”. On to EASNCFAIRHFENKFAVETLICLVVSGTRRESGA, for which the amyloid nucleation score turned out to be 2.65.

Take EASNCFAIRHFENKFAVETLICLVVYCGLTVEFR: the amyloid nucleation score result was “inactive”.
